ChEMBL document CHEMBL4888484, “Replenishing the malaria drug discovery pipeline: Screening and hit evaluation of the MMV Hit Generation Library 1 (HGL1) against asexual blood stage Plasmodium falciparum ,using a nano luciferase reporter read-out” (2022)
“And” between values parts separate entries of the source, which are not always exact repeats. Equal values may be shown once. The campaign covered roughly 150,000 compounds. About 540 (0.36%) showed an effect of 50% or more. Some of the results follow.

Test system: Plasmodium falciparum
Test: Primary screen in NF54 nanoGlo assay, in single point, at 2uM, 72h; a lower Z score goes with more inhibition
Type: functional, Erythrocyte
Conditions: timepoint 72 hour

Structure (SMILES)	% Inhibition	Z score	% Inhibition (2 µM)
CCOC(=O)C(=O)Nc1c2c(cn1-c1ccccc1)CS(=O)(=O)C2	9%	-1.09	–
Nc1ncc(Br)c(-c2cnc(-c3ccc(F)cc3)s2)n1	-15%	2.21	–
Cc1cc(NCc2csc(C3CC3)n2)no1	-11%	1.08	–
CC(=O)N1CCC(COS(=O)(=O)c2ccc(C)cc2)CC1	-4%	0.68	–
Fc1cc(Br)cc([C@H](CC2CC2)NCc2ncc[nH]2)c1	-1%	0.16	–
COc1cc(OC)cc(N(C)C(=O)Cc2c(C)noc2C)c1	3%	-0.55	–
CCCN1CCN(S(=O)(=O)c2ccc3c(c2)N(Cc2noc(C4CCC4)n2)C(=O)CO3)CC1	-9%	1.07	–
O=C(N[C@H]1CCS(=O)(=O)C1)c1cc(OCc2ccccc2)ncn1	-8%	1.52	–
COc1ccc(Cn2ncc(C)c2NC(=O)c2ncc(F)cc2F)cc1OC	-9%	1.24	–
COc1ccc(C(=O)N(CCN2CCOCC2)CC(=O)N2N=C(c3ccc(F)cc3)C[C@H]2c2ccc(F)cc2)cc1	1%	-0.12	–
COCCO[C@H]1COCCN(C(=O)c2ccccc2)C1	17%	-2.02	–
Cc1cn(CCCC(=O)O)nc1C(F)(F)F	28%	-3.14	–
Cc1nc(N)[nH]c(=O)c1CC(=O)N1c2ccccc2C[C@@H]1C	-10%	0.96	–
COc1ccc(CNC(=O)c2ccc(-n3nc(C)c4c3CCCC4=O)cc2)cc1	-10%	1.31	–
CCCN(CCOC)C(=O)c1ccc(C(=O)O)s1	-7%	1.29	–
O=C(NC(CN1C(=O)COC1=O)c1ccccc1)C1COc2ccccc2O1 (configuration not stated)	-11%	1.63	–
Cc1nc(C2CC2)oc1C(=O)N1CCc2cc(C#N)ccc21	-1%	0.24	–
COc1cccc(-c2cc3c(n2-c2ccc(C(=O)NCCc4ccco4)cc2)CCCCC3)c1	2%	-0.19	–
CCN1CCC[C@@H]1CN(C)CC(=O)Nc1cc(C)nn1-c1nc(C)cc(C)n1	-9%	0.91	–
COC[C@H](O)CNC(=O)c1cccn1C1CC1	35%	-1.34	–
Cc1cncc(-c2cc(N3CCN(C)CC3)nc(N)n2)c1	-5%	0.94	–
O=C1C[C@H](c2nc(-c3cccnn3)no2)CN1C1CCCC1	-18%	3.14	–
Cc1nccc(C(=O)Nc2nc3cc(F)c(F)cc3s2)n1	-8%	1.15	–
CC[C@@](C)(CCCNC(=O)c1cccc(OCC(N)=O)c1)C1OCCO1	0%	-0.03	–
O=C(CC1=CCCCC1)Nc1cc(C(F)(F)F)n[nH]1	7%	-1.26	–
Cc1ccc(S(=O)(=O)c2cn(CC(=O)Nc3ccccc3C)c3nc(C)ccc3c2=O)cc1	8%	-1.49	–
COc1ccc([C@@H](C)NC(=O)NC2CCn3ccnc32)c(OC)c1 (some centres not stated)	2%	-0.36	–

Structure (SMILES)	% Inhibition	Z score	% Inhibition (2 µM)
CC(=O)N1CCC(CNC(Cc2ccccc2)C(C)NC(=O)OC(C)(C)C)CC1 (configuration not stated)	13%	-2.02	–
Cn1nccc1CN1CCC[C@@H]1CC(=O)c1ccc(F)cc1	-13%	1.87	–
Cc1cc(CNS(=O)(=O)CC2CCC(C(F)(F)F)O2)on1 (configuration not stated)	0%	0.01	–
CN(Cc1cscn1)C(=O)C1(Cc2ccccc2)CCC1	-3%	0.27	–
Cc1c(Cl)ccc(NC(=O)NCCN(C)S(C)(=O)=O)c1Cl	-8%	1.35	–
CC(C)(C#N)CCCNc1cccc(CO)c1	-10%	1.53	–
CCOc1nc(C)nc2cc(-c3ccccc3)n(Cc3ccccc3)c12	36%	-1.29	–
COc1cccc(CN2C(=O)CCCC[C@H]2C(=O)N2CCN(c3ncccn3)CC2)c1	5%	-0.6	–
Cc1nnc(CN[C@@H](Cc2ccccc2)C(C)(C)C)n1C	-6%	0.58	–
Cc1cc(C)n(CC2(CNC(=O)Nc3ccc4c(c3)C[C@H](C)O4)CC2)n1	4%	-0.58	–
Cc1n[nH]c(C)c1CNC[C@H](C)Cn1cccn1	-12%	1.82	–
Cc1ccnc(NS(=O)(=O)c2ccc(NC(=O)c3cc(C)on3)cc2)n1	-10%	1.88	–
CC(=O)NC1(c2nccs2)CCCC1	-11%	1.47	–
CC(=O)N[C@H]1[C@H](Nc2ncnc3sc(C)c(C)c23)[C@@H]2CCO[C@@H]21	-4%	0.78	–
Cc1ncc(CN2CCN(C)CC2)c2cc(C(=O)c3ccc4c(c3)OCCO4)oc12	–	–	-3% and 6%
Cc1cc(C(=O)N[C@H]2CC[C@H](n3cnnc3)CC2)[nH]n1	-10%	1.83	–
O=C(NC1CCCCCC1)c1cc2n(n1)CCCN(Cc1ccc(Cl)cc1)C2=O	8%	-1.6	–
CC(C)Cn1ncnc1COC(=O)c1cccc2cc[nH]c12	-1%	0.06	–
CC[C@](C)(O)CNC(=O)C(=O)Nc1cc(F)cc(F)c1	-7%	0.8	–
CC(=O)N1CCN(C(=O)c2ccc(-c3ccc(F)cc3)n2C)CC1	-22%	2.81	–
CCCCOc1ccc(C)cc1S(=O)(=O)n1cncn1	-2%	0.46	–
CCN1CC(=O)N[C@H]2CN(C(=O)c3cc4ncccn4n3)CC[C@@H]2OCc2cccc(c2)Oc2cc(OC(C)C)cc(c2)C1=O	-2%	0.4	–
CCCC1CCCCC1CNC(=O)N1CC(=O)N(C)C1 (configuration not stated)	-16%	1.39	–
CCC(CC)(CO)C(=O)N1CCC(c2nc(C)no2)CC1	-7%	1.17	–
CC[C@@H](CO)NC(=O)c1ccc(F)cc1C	-7%	0.65	–
O=C(Nc1cccc(-c2ccc3c(c2)OCCO3)n1)C1C2CCCC21 (configuration not stated)	-1%	0.16	–
COc1ccc(CNC(=O)CN2CC[C@H](C)c3cccc(OC)c32)cc1	-4%	0.71	–
